The labels stand for the following.
B1: chr17:21001410:21001511:-|3pUTR|ENSG00000124422|msi1_unk|FALSE|overlapping (ssRNA)
RNA: GGGAGUUCUACAGUCCGACGAUCUAGUACAACUUUUAGACACAGAAAUCUGAAUGACAUAUAUUGUUCUGUGUCAAGAAACUUAGAUUUUUUUUUUAACUAUUUAAAAACGUGAAACCUAUUCUUAGCUCACAGGCCAUGGAGCAACAGAGGAUUGAGCAUCA
B2: chr22:41177882:41177989:+|CDS|ENSG00000100393|unk|FALSE|unique (ssRNA)
RNA: GGGAGUUCUACAGUCCGACGAUCCAAAACCUUUUGCGGACUCUCAGGUCUCCCAGCUCUCCCCUGCAGCAGCAACAGGUGCUUAGUAUCCUUCACGCCAACCCCCAGCUGUUGGCUGCAUUCAUCAAGCAGCGGGCUGCCAAGCAACAGAGGAUUGAGCAUCA
B3: ENSG00000136451:be:win_3351|3pUTR|ENSG00000136451|bound_else_gene|NA|bound_elsewhere_windowed (ssRNA)
RNA: GGGAGUUCUACAGUCCGACGAUCGAAGGCAACACAUUCCUACACUUUUAAUGUAUAUGUUUGUUAUAAUGUCCAUGUAAACAUGCCCUAUGUUUGUGCCUUUUAAUUAGUUUGUCUCAAUAAACAAAAUGUAGAGAAAAAUAUCAACAGAGGAUUGAGCAUCA
B4: ENSG00000124766:be:win_3501|3pUTR|ENSG00000124766|bound_else_gene|NA|bound_elsewhere_windowed (ssRNA)
RNA: GGGAGUUCUACAGUCCGACGAUCAACUUGUAAACCACAUCUUUUUUGCACUUUUUUUAUAAGCAAAAACGUGCCGUUUAAACCACUGGAUCUAUCUAAAUGCCGAUUUGAGUUCGCGACACUAUGUACUGCGUUUUUCAUUCUCAACAGAGGAUUGAGCAUCA
B5: chr11:35229396:35229958:+|3pUTR|ENSG00000026508|msi1|total|mutant (ssRNA)
RNA: GGGAGUUCUACAGUCCGACGAUCAUAUGUAUUCCUGAUCGCCAACCUUUCCCCCACCAGCUAAGGACAUUUCCCAGGGUUAACCGGGCCUGGUCCCUGGGAGGAAAUUUGAAUGGGUCCAUUUUGCCCUUCCACCGCCUAAUCCAACAGAGGAUUGAGCAUCA
B6: chr18:3457781:3457936:+|CDS|ENSG00000177426|unk|total|mutant (ssRNA)
RNA: GGGAGUUCUACAGUCCGACGAUCCAACACUCCUCCCCCUACUCCACCGGACCUCAACCAGGACUUCAGUGGAUUUCAGCUUCCCGUGGAUGUUGCACUCAAACGGGCUGCAGAGAUGGAGCUUCAGGCAAAACUUACAGCUUACAACAGAGGAUUGAGCAUCA
B7: chr4:140442261:140443444:-|three_prime_utr|ENSG00000205301|control|control|control (ssRNA)
RNA: GGGAGUUCUACAGUCCGACGAUCCUCUGUAAUACCUGGAACCUCAGAUAACCUUGAUAUCUAAUGGCAUGUUUCAGAAAUUGUAGUAAUGAAAAUACAUAAUUAUCUAGCAGAUAAGUAAACAAUGCAUAAACUAGUAGACUUCAACAGAGGAUUGAGCAUCA
B8: chr11:102693905:102694065:-|CDS|ENSG00000137675|control|control|control (ssRNA)
RNA: GGGAGUUCUACAGUCCGACGAUCCUUGCCAGAUUAUCCCAAAUCCAUCCAUACAUUAGGUUUUCCAGGACGUGUGAAGAAAAUAGAUGCAGCCGUCUGUGAUAAGACCACAAGAAAAACCUACUUCUUUGUGGGCAUUUGGUGCAACAGAGGAUUGAGCAUCA
B9: ENSG00000124766:be:win_2101|3pUTR|ENSG00000124766|bound_else_gene|NA|bound_elsewhere_windowed (ssRNA)
RNA: GGGAGUUCUACAGUCCGACGAUCUGCCCCCUCUGCAGCCGGAGGAGGAGAUGUUGAGGGGAGGAGGCCAGCCAGUGUGACCGGCGCUAGGAAAUGACCCGAGAACCCCGUUGGAAGCGCAGCAGCGGGAGCUAGGGGCGGGGGCAACAGAGGAUUGAGCAUCA
B10: chr4:102887774:102887875:+|3pUTR|ENSG00000145354|msi1|FALSE|unique (ssRNA)
RNA: GGGAGUUCUACAGUCCGACGAUCUUGGUUUUGAUAAUCUGAAGUGUUUUUUUCUCGUUUUGGCCUUCCAAACUGCAUUUGGUUAGGUGAAUUAAGAAAAAUAUUGCCAUCAAGAAUUACUUGUGUUUUCACAGAGAUAGACUCCAACAGAGGAUUGAGCAUCA
B11: chr5:38883864:38883977:+|CDS|ENSG00000145623|unk|FALSE|unique (ssRNA)
RNA: GGGAGUUCUACAGUCCGACGAUCGUUUUCCCUAAAGAUAAGCUGGUGGAAGAAGGCACCAAUGUUACCAUUUGUUACGUUUCUAGGAACAUUCAAAAUAAUGUAUCCUGUUAUUUGGAAGGGAAACAGAUUCAUGGAGAACAACAACAGAGGAUUGAGCAUCA
B12: chr14:90848141:90848242:-|3pUTR|ENSG00000100784|unk|FALSE|unique (ssRNA)
RNA: GGGAGUUCUACAGUCCGACGAUCCGAUAACUGGUACUGCCUUUGAUUAAAGGUGAGCUAUAUGGAGUUAAGCAUUUUUAUACUAGUAACUAUUUAUUGAGAAUUUUCAGAAUUCUAUAGCUACUUGUCUUUAACAGUUAUAAGCAACAGAGGAUUGAGCAUCA
B13: chr11:95131931:95132033:+|3pUTR|ENSG00000149218|unk|total|mutant (ssRNA)
RNA: GGGAGUUCUACAGUCCGACGAUCGGACCGGUGGCUGAGACCCACUGCCCUGAGCUACCCGUGUGGCUGUGCCUGUGGGUCUCCCGAACCAUCUGCAUUGGACGUGAAGCCACAGCAGGUGGCUGGACUGCUGGCCUGUUCCUACAACAGAGGAUUGAGCAUCA
B14: chr20:2117184:2117286:+|CDS|ENSG00000125834|unk|FALSE|unique (ssRNA)
RNA: GGGAGUUCUACAGUCCGACGAUCGCUCCUGGGGACCUACAUUAAACAGGGGACUGAGAUCGUCCCUGUUGGUGAGGCGCUGCUAGAAAACCCAAAGAUGGAGUUGCACAUCCCCCAAAAACGCAGGACUUCCAUGUCUGAGGGCAACAGAGGAUUGAGCAUCA
B15: chr16:67638976:67639077:+|3pUTR|ENSG00000102974|unk|total|mutant (ssRNA)
RNA: GGGAGUUCUACAGUCCGACGAUCAAACACUUUUUUCUUCUGUGUAUUGCUUUUAAGAGAGCCAUCAGUCCGCUAUCAGACUCCCGGUUGAUGCAUUUUGUACUCCGCUGUACUGUGUGAUAUUUUUCAUUAUUUCCGGACGCCCAACAGAGGAUUGAGCAUCA
B16: chr1:28742582:28742694:+|CDS|ENSG00000198492|unk|FALSE|bound_elsewhere (ssRNA)
RNA: GGGAGUUCUACAGUCCGACGAUCAGCAACGGAGAGCCCCACUUCCUACCAGAUGCAAUGUUUGGGCAACCAGGAGCCCUAGGUAGCACUCCAUUUCUUGGUCAGCAUGGUUUUAAUUUCUUUCCCAGUGGGAUUGACUUCUCACAACAGAGGAUUGAGCAUCA
B17: ENSG00000107863:be:win_2401|CDS|ENSG00000107863|bound_else_gene|NA|bound_elsewhere_windowed (ssRNA)
RNA: GGGAGUUCUACAGUCCGACGAUCUUGGCUUCCAUCCCAUUUAUAGAUGAACCAACUAGCCCUAGCAUUGAUCAUGAUAUUGCACAUAUCCCUGCCUCUGCUGUUAUAUCAGCCUCUACCUCUCAGGUCCCCUCCAUAGCAACACAACAGAGGAUUGAGCAUCA
B18: chr14:100881274:100881386:-|CDS|ENSG00000254656|unk|total|mutant (ssRNA)
RNA: GGGAGUUCUACAGUCCGACGAUCCGCAGGCAGCAGCAUCACGACAGCCAUCACCCAGCUGCUCACCCAGAUGCCCGCUCUCGCCGGUGCAAACACCAUCCCAGCCCAGGAGCUGGCUGAGCUGUUCCUGGGCCCUGGCCGCUGCAACAGAGGAUUGAGCAUCA
B19: chr19:21971193:21974807:-|CDS|ENSG00000160321|control|control|control (ssRNA)
RNA: GGGAGUUCUACAGUCCGACGAUCCACAAGAAAAUUCAUACUGGAGAGAAACCCUACAAAUGUGAAGAAUGUGGCAAAGCCUUUAGUACGUUCUCAAUCCUCACUAAACAUAAGGUAAUUCAUACUGGAGAGAAACCCUACAAACAACAGAGGAUUGAGCAUCA
B20: chr6:145799413:145799514:-|3pUTR|ENSG00000118496|msi1|FALSE|bound_elsewhere (ssRNA)
RNA: GGGAGUUCUACAGUCCGACGAUCUUAUCUCACAUACUUACAACUCAACACACAGAGUGACCAUGUGCAGCUUUCUUUUUUGUUAGAUGCCACAUCCGAAGACUCAUCGCAGUGUGUUAUAUGACAGGACAAAGCAAAAACAAACAACAGAGGAUUGAGCAUCA
B21: chr10:17315694:17315795:-|3pUTR|ENSG00000148488|unk|FALSE|unique (ssRNA)
RNA: GGGAGUUCUACAGUCCGACGAUCCUUCUUCCUCCCUGUCCAUCCCACCCUCGUCCCCAGAAAAUUCCUAAUCUGUUUUUCUAUAGACAUUUACAUUUUUACACUAUAGACUGUUUACAUUUUUUAGAAUUUUAUAUAAAUGGACAACAGAGGAUUGAGCAUCA
B22: chr9:101390585:101390694:-|CDS|ENSG00000136897|unk|FALSE|unique (ssRNA)
RNA: GGGAGUUCUACAGUCCGACGAUCUAAUUGGCAAGACAUCUCCCUGGAAGAUAGUCGUCUAAAGUUCAAUCUUCUGGCUCAUUUAGCUGAUGACUUGGGUCAUGUAGUCCCUAACUCCAGACUCCACCAGAUGUGCAGGGUUAGCAACAGAGGAUUGAGCAUCA

This is one part of the list.

The target of the experiment is MSI1 full-length (mouse, UniProt Q61474 1-362). Description: nsRBNS (natural sequence RNA bind-n-seq); RBNS binding buffer (assumed for nsRBNS): 25 mM Tris pH 7.5, 150 mM KCl, 3 mM MgCl2, 0.01% Triton X-100, 500 ug/ml BSA, 20 U/ml SUPERase-In, 4 C; UNK is unkempt and MSI1 is Musashi-1; names of the RNAs are library labels; protein concentration not given here; high values mean tight binding.
Chain of UniProt Q61474 (Q61474 whole entry): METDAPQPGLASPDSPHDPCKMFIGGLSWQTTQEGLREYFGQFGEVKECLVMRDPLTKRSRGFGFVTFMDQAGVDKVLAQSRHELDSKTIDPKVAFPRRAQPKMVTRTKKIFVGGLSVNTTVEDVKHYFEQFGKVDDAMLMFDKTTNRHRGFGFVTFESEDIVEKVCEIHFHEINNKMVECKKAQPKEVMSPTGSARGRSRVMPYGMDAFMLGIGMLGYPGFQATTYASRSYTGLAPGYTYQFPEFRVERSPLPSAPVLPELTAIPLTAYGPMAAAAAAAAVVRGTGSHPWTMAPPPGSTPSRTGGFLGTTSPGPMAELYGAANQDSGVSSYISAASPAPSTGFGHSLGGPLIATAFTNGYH
For B1, the binding signal came out at 4.13 enrichment R.

As to B2, the binding signal was 0.639 enrichment R.

B3: the binding signal was 4.72 enrichment R.

With B4, the binding signal worked out at 0.411 enrichment R.

B5 displayed a binding signal of 0.401 enrichment R.

The molecule B6 had a binding signal of 0.52 enrichment R.

Turning to B7, the binding signal is 4.02 enrichment R.

As to B8, the binding signal was 0.487 enrichment R.

Turning to B9, the binding signal worked out at 0.718 enrichment R.

B10 showed a binding signal of 0.272 enrichment R.

B11 displayed a binding signal of 0.298 enrichment R.

B12 gave a binding signal of 2.7 enrichment R.

As for B13, the binding signal worked out at 0.283 enrichment R.

B14 came in with a binding signal of 0.66 enrichment R.

B15 came in with a binding signal of 0.321 enrichment R.

Regarding B16, the binding signal was 0.505 enrichment R.

Turning to B17, the binding signal came out at 4.65 enrichment R.

On to B18, for which the binding signal was 0.367 enrichment R.

The molecule B19 had a binding signal of 0.37 enrichment R.

Turning to B20, the binding signal came out at 0.29 enrichment R.

Consider B21, for which the binding signal stood at 10.8 enrichment R.

On to B22, for which the binding signal came to 0.481 enrichment R.

These data come from PMC12136788.
